Experimental data from PubChem BioAssay AID504466 (National Center for Advancing Translational Sciences (NCATS), 2011).
Among all 330,000 compounds or so, about 4,200 (1.3%) were called active. The shares of active, inactive and inconclusive entries below differ from those in the screen. Calls come from the whole dose curve; as a rule, active = well fitted activation curve with a large enough effect; inconclusive = small, poorly fitted or top-dose-only effect; inactive = no such curve, though single readings can be large or run the other way. Potencies of inconclusive entries are doubtful fits and often do not repeat.

Experiment: qHTS screen for small molecules that induce genotoxicity in human embryonic kidney (HEK293T) cells expressing luciferase-tagged ELG1; note: nearly all actives have a fitted effect of over 60% in size; for activity change, positive = activation: % of control where 0% means no effect
Conditions: HEK293T ELG1-luciferase reporter, luminescence, 16 h; series mostly up to 46 µM; activity change, positive = activation: at the top concentration
Procedure, shortened: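 Luminescence read-out: rising ELG1-luciferase signal, reflecting elevated ELG1 protein under genetic stress, flags genotoxic compounds. Cells were treated for 16 hr at 37 °C before ONE-Glo detection.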
Potency is the fitted concentration of half-maximal effect; tags give direction and shape of the fitted curve.

Structure (SMILES)	Potency	activity change, positive = activation
Cc1cc(C)c(NC(=O)Cn2nnc(C(=O)Nc3ccc(F)cc3F)c2N)c(C)c1	inconclusive: 29.1 µM [activator, partial curve, poor fit]	
Cc1nc(Cl)c(C(=O)NC(=O)NCc2ccccc2)c(C)c1Cl		inactive: 0.508%
Cc1nc2ccc(S(=O)(=O)Nc3ccc(-c4nc5cccnc5s4)cc3)cc2s1		inactive: 10.6%
CC(Sc1ncccn1)C(=O)Nc1ccc2c(c1)OCCO2 (centres undefined)		inactive: 6.67%
CC(=O)Nc1cccc(-c2cnc3ccccc3n2)c1	active: 10.3 µM	
O=C(Nc1sc2c(c1C(=O)O)CCCCC2)c1ccco1	inconclusive: 10.3 µM [activator, partial curve]	
Cc1cccc(-n2c(=O)c(C#N)cc3c(=O)n4ccccc4nc32)c1		inactive: 3.13%
CC(C)NC(=O)NC(=O)COc1c(F)c(F)cc(F)c1F		inactive: -2.49%
N#Cc1ccccc1NC(=O)c1ccc(-c2ccccc2Cl)o1	inconclusive: 5.8 µM [activator, partial curve]	
CC(C)n1c(SCC(=O)NC2CC2)nnc1C1CC1		inactive: 3.84%
COc1ccc2c(c1)[nH]c1c(=O)n(Cc3ccco3)cnc12	active: 18.4 µM	
Cc1cccc(NC(=O)c2cc3ccccc3oc2=O)c1	active: 2.06 µM	
O=C(NCCc1ccccc1F)C(=O)Nc1nccs1	inconclusive: 8.2 µM [activator, partial curve, poor fit]	
CC(C)Cn1c(=O)[nH]c(=O)c2c(C(F)(F)F)cc(-c3ccccc3)nc21		inactive: 6.43%
Cc1sc(NC(=O)CS(=O)(=O)c2ccccc2)c(C(N)=O)c1C	inconclusive: 20.6 µM [activator, single point]	
COc1cccc(C(=O)OCC(=O)N2CCc3ccccc32)c1OC	inconclusive: 18.3 µM [activator, partial curve, poor fit]	
CCOC(=O)c1ccc(NC(=O)C2C3CCC(C3)C2C(=O)O)cc1 (centres undefined)	inconclusive: 16.4 µM [activator, single point]	
CC(=O)Nc1cccc(NC(=O)CSc2ncc(C(=O)Nc3ccc(F)cc3)c(=O)n2C)c1		inactive: 7.27%
CC(C)(c1ccccc1)c1ccc(OCc2ccc(C(=O)O)o2)cc1	inconclusive: 9.2 µM [activator, partial curve]	
CCOC(=O)c1sc(NC(=O)c2cccs2)nc1C	inconclusive: 9.2 µM [activator, partial curve]	
c1ccc(-n2nc3c(ccc4cnnc43)[nH]2)cc1	inconclusive: 10.3 µM [activator, partial curve, poor fit]	
Fc1ccc(-c2nnc(SCc3cccnc3)o2)cc1	inconclusive: 16.4 µM [activator, partial curve, poor fit]	
C/C(CC(=O)Nc1cc(Cl)ccc1Cl)=N\NC(=O)c1ccccc1Br		inactive: 6.7%
COc1ccc(Nc2oc(-c3ccccc3F)nc2C#N)cc1	inconclusive: 16.4 µM [activator, partial curve, poor fit]	
Cc1ccc(NS(=O)(=O)c2ccc(C(=O)N3CCN(c4ncccn4)CC3)cc2)cc1		inactive: -7.88%

Structure (SMILES)	Potency	activity change, positive = activation
O=S(=O)(/N=C(/NC(=S)Nc1ccccc1)c1ccccc1)c1ccc(Cl)cc1	inconclusive: 20.6 µM [activator, partial curve]	
COc1ccc(Cl)cc1NC(=O)C1CC(c2ccccc2O)=NO1 (centres undefined)		inactive: 0.0076%
O=C(COC(=O)c1cccs1)c1ccc2ccccc2c1	inconclusive: 10.3 µM [activator, partial curve, poor fit]	
COc1ccc2c(-c3ccc(S(N)(=O)=O)cc3)c(-c3ccc(S(C)(=O)=O)cc3)sc2c1		inactive: -5.76%
CCOc1ccc(NC(=O)NCc2ccc3c(c2)OCO3)cc1		inactive: 3.09%
COc1ccc(C(=O)Nc2cc(=O)[nH]c3ncnn23)cc1		inactive: 3.62%
Cc1ccc(-n2ncc3c(NCc4cccnc4)ncnc32)cc1C	active: 9.2 µM	
Cc1ccc(C(=O)CNc2ccc(C)c(Cl)c2)cc1	inconclusive: 14.6 µM [activator, partial curve, poor fit]	
Nc1nnc(/C=C/c2cccc([N+](=O)[O-])c2)s1	inconclusive: 20.6 µM [activator, partial curve, poor fit]	
CCn1c(SCC(=O)NC2(C#N)CCCCC2)nc2ccccc2c1=O		inactive: 0.656%
CCCOC(=O)c1ccc(-c2ccc(C=O)o2)cc1	inconclusive: 4.11 µM [activator, partial curve]	
COc1cccc(/C=C/C(=O)OCC(=O)NC(=O)NC2CCCCC2)c1		inactive: -1.58%
CC1(C)Cc2c(sc(NC(=O)Nc3ccccc3)c2C(N)=O)CO1	inconclusive: 8.2 µM [activator, partial curve]	
O=C(OCc1csc(-c2ccccc2)n1)c1ccccc1O	inconclusive: 23.1 µM [activator, single point]	
N/C(=N\OCC(=O)Nc1ccccc1)c1nonc1N		inactive: 3.89%
Cn1cc(C(=O)Nc2ccc(C#N)cc2)c2ccccc2c1=O	inconclusive: 18.3 µM [activator, single point]	
O=C(NNC(=S)Nc1ccccc1Cl)c1ccccc1	inconclusive: 2.06 µM [activator, full curve]	
COc1ccc(C(=O)OCC(=O)NC2CC2)cc1OC		inactive: -1.39%
O=[N+]([O-])c1cc(-c2nnc(-c3ccccc3)o2)ccc1Oc1ccc(Cl)cc1	inconclusive: 23.1 µM [activator, partial curve, poor fit]	
Cc1ccc(CN2CCN(CC(=O)N/N=C/c3ccc(C)o3)CC2)cc1	inconclusive: 2.91 µM [activator, single point]	
CCCCOc1ccc(C2=NNC(=O)CC2)cc1	inconclusive: 18.4 µM [activator, partial curve, poor fit]	
COc1ccc(Cl)cc1NC(=O)CN1CCC(NC(=O)C2CC2)CC1		inactive: -17.2%
CC(=O)n1nc(-c2ccccc2)nc1NCc1cccs1	inconclusive: 23.1 µM [activator, partial curve, poor fit]	
CC(C)(C)c1ccc(-c2nc(N)nc(N)n2)cc1	inconclusive: 20.6 µM [activator, partial curve, poor fit]	
